From ChEMBL document CHEMBL1157539, “Thousands of chemical starting points for antimalarial lead identification” (Nature, 2010) come the findings set out here.

Over roughly 13,000 compounds, “IFI” has its median near 4; the highest 2% begin near 17. The list shows a part of the results.

The assay in a line: GSK_TCMDC: Inhibition Frequency Index (IFI). The number of non-kinase HTS assays where a compound showed > 50 % inhibition, expressed as a percentage of the number of such assays in which the compound was tested (-0 is zero). The assay is classed as functional.
On to `Cc1ccc2oc3cc(-c4nnn[nH]4)ccc3c(=O)c2c1`, for which the IFI stood at 2.27%.
`O=C(NC1CCCCC1)N(Cc1ccc(-c2ccc(CNC3CCCC3)cc2)cc1)C1CCN(Cc2ccccc2)CC1` came in with an IFI of 8.46%.
Take `CCn1c(-c2nonc2N)nc2c(-c3cccc(NC(=O)NC45CC6CC(CC(C6)C4)C5)c3)ncc(OCCCN)c21`: the IFI stood at 16.7%.
Regarding `CCNc1cc(C(=O)N[C@@H](Cc2ccccc2)[C@H](O)CNC2(CCC(C)C)CC2)cc(N2CCCCS2(=O)=O)c1`, the IFI is 2.94%.
To `CC(C)CN(c1nc(C(=O)NNC(=O)[C@H](CC2CC2)NC(=O)c2cc3cc(OCCN(C)C)ccc3o2)cs1)C1CC1` belongs 3.65%; to `O=C(Nc1ccccc1)Nc1cccc(-c2nn3c(OCCN4CCCC4)cccc3c2-c2ccncc2)c1`, 7.75%.
Consider `Cc1ccc(-c2nc3ccccc3o2)cc1NCc1cc(Cc2ccccc2)ccc1O`, for which the IFI came to 2.19%.
As for `O=C(Nc1nc(-c2ccccn2)cs1)c1ccc(Br)s1`, the figure is 6.82%; as for `COc1ccc(CSC2CCCCC23NC(=S)NC3=S)cc1` (stereo not given), 2.94%.
`Cc1cc(-c2ccc3c(c2)CC[C@@H](N[C@@H](C)c2ccccc2)C3)cnc1N` registered an IFI of 5.07%.
`COC(=O)c1cccc(CNCc2ccc(-c3cccc(-c4nc5cc(C(F)(F)F)ccc5[nH]4)c3)cc2)c1` registered an IFI of 5.71%.
`CCCN(CCCCCCNCCc1ccc(Cl)cc1)CCc1ccc(O)c(O)c1`: the IFI turned out to be 6.8%.
With `O=C(NCCCCN1CCC(c2nc3ccccc3s2)CC1)c1cc2ccccc2[nH]1`, the IFI turned out to be 10.6%.
Consider `Nc1c2c(nc3ccccc13)C(=Cc1ccc(O)cc1)CCC2`, for which the IFI came to 3.55%.
For the molecule `COc1ccc(Cc2nc3c(n2C(C)=O)SC(c2ccc(Cl)c(Cl)c2)=NN3C(C)=O)cc1`, the IFI turned out to be 0%.
As for `Cc1cc(OCC(=O)Nc2ccc(-c3nc4ccccc4[nH]3)cc2)cc(C)c1Cl`, the figure is -0%.
Regarding `CC(C)(C)OC(=O)NCc1ccc(Nc2nnc(-c3cccc(OCC(=O)NCc4cc(C(F)(F)F)cc(C(F)(F)F)c4)c3)o2)cc1`, the IFI was found to be 2.96%.
As for `O=C(NC1CCC1)C1CCN(C(c2ccccc2)c2cc(F)cc(F)c2)CC1` (stereo not given), the IFI stood at 2.82%.
`N#Cc1ccc(NC(=O)NC2CCN(CCCCCNC(=O)/C=C/c3ccc(Cl)c(Cl)c3)CC2)cc1` yielded an IFI of 4.03%.
As for `O=C(Nc1ccc(F)c(F)c1)c1ccc(CN2CCCN(Cc3cccc(F)c3)CC2)cc1`, the figure is 8.8%.
On to `Cc1occc1C(=O)Nc1nc(-c2ccccn2)nc2ccsc12`, for which the IFI worked out at 8.21%.
As for `COc1ccc2ncc(F)c(CCN3CC[C@@H](CNCc4cc(C)c5c(c4)OCCO5)C3)c2n1`, the figure is 6.73%.
Regarding `Oc1ccc(CCNc2nc(NCc3ccccc3-c3ccc(C(F)(F)F)cc3)nc(N3CCNCC3)n2)cc1`, the IFI amounted to 13.1%.
Molecule `COc1ccc(F)cc1-c1cccc(CNC2CCN(CC3Cn4c(=O)ccc5ccc(F)c3c54)CC2)c1` (stereo not given) registered an IFI of 8.77%.
Regarding `CCCc1ccc(NC(=O)c2cccc(CN3CCCN(Cc4cccc(C#N)c4)CC3)c2)cc1`, the IFI turned out to be 6.43%.
To `CC(C)c1ccc(N(CC(=O)N/N=C/c2ccc(C(F)(F)F)cc2)S(=O)(=O)c2ccc(C(F)(F)F)cc2)cc1` belongs -0%; to `CNCc1ccc(-c2cccc(CNCc3ccc(-c4ccccc4)cc3)c2)c(C(=O)OC)c1`, 7.94%; to `CC(C)C1C(O)=C(c2ccc3ccccc3c2)C(=O)N1Cc1ccsc1` (stereo not given), -0%.
The molecule `Cc1cccc2c(CON3C(N)=NC(N)=NC3(C)C)cccc12` showed an IFI of 3.52%.
`N#CN1CC[C@@H](NS(=O)(=O)Cc2ccc(Cl)c(Cl)c2)C1`: the IFI amounted to 6.67%.
The molecule `O=C(Nc1ccc(O)c(-c2nc3ccccc3[nH]2)c1)c1ccc([N+](=O)[O-])cc1` gave an IFI of 0.75%.
Turning to `Cc1ccc(CN2CCN(c3cc4c(cc3Cl)CCN4C(=O)Cc3ccc(NC(=O)c4ccc(C(F)(F)F)cc4)cc3)CC2)cc1`, the IFI amounted to 1.46%.
In turn, `COc1ccc2cc(-c3nc(-c4c(Cl)cccc4Cl)[nH]c3-c3ccnc(NCCCN4CCCCC4C)c3)ccc2c1` (stereo not given) gave an IFI of 7.19%.
In the case of `Cn1c(Sc2ncnc3sccc23)nc2ccccc21`, the IFI amounted to 1.47%.
Take `O=C(Nc1ccc(F)cc1)NC1CCN(CCCCCNC(=O)C2CC2c2ccc(Cl)c(Cl)c2)CC1` (stereo not given): the IFI was determined as 12.3%.
As for `Nc1nccc(-c2ccc3c(-c4cccc(F)c4)cnc(N)c3c2)n1`, the figure is 2.5%; as for `Fc1ccc(-c2cc3ncnc(N4CCN(CCN5CCCC5)CC4)c3s2)cc1`, 1.72%.
`CO/N=C(\C)c1ccc2c(c1)CCN(CCC1CCC(NC(=O)/C=C/c3ccc(F)cc3)CC1)CC2` (stereo not given) yielded an IFI of 9.66%.
In turn, `O=C(c1cc2ccccc2o1)N1CCc2cc3nccc(N4CCN5CCC[C@H]5C4)c3cc21` yielded an IFI of 4.44%.
Turning to `CNCCCNc1ccnc2cc(Cl)ccc12`, the IFI was -0%.
In turn, `COc1cc(C(=O)NCc2nn(CCN3CCC(N4CCCC4)CC3)cc2-c2ccc(Cl)c(Cl)c2)cc(OC)c1OC` yielded an IFI of 0%.
To `COCCNc1nc(N2CCC(CNC(=O)c3ccc(-c4ccc(C(=O)N(C)C)cc4C)cc3)CC2)nc2cc(OC)c(OC)cc12` belongs 3.64%.
`CC(C)CN(C)Cc1ccc(-c2ccc(-c3nc4ccccc4[nH]3)s2)cc1` had an IFI of 1.82%.
As to `Cc1ccc2[nH]c3c(NCCCN(C)C)ncnc3c2c1`, the IFI turned out to be 0%.
As for `c1ccc2[nH]c(-c3ccc(-c4ccc(CNCCc5ccncc5)cc4)s3)nc2c1`, the figure is 8%; as for `CCOC(=O)c1c(-c2ccccc2)c(C(=O)OCC)n2ccccc12`, 2.94%; as for `CC1(C)NC(N)=NC(=N)N1OCc1nc(N)nc(Nc2ccccc2)n1`, 0.74%.
For `CCOC(=O)c1ccc(NC(=O)NC2CCN(CCCCCNC(=O)/C=C/c3ccc(Cl)c(Cl)c3)C2)cc1` (stereo not given), the IFI worked out at 9.16%.
Regarding `Cc1cc(-c2ccc(CNCCc3cccs3)cc2)ccc1S(=O)(=O)NCc1ccccc1`, the IFI is 13.1%.
`COc1ccc(CNC(=N)Nc2nc(-c3ccc(OCCCn4ccnc4)cc3)cs2)cc1` yielded an IFI of 4.48%.
To `CN1CCCC(CN2CCN(Cc3ccc(-c4ccc(-c5nc6cc(F)ccc6[nH]5)s4)cc3)CC2)C1` (stereo not given) belongs 6.94%.
To `CCCN1CCN(c2cc(S(=O)(=O)Nc3ccc(C(=O)NCc4cccc(C(F)(F)F)c4)cc3)ccc2OC)CC1` belongs 24.1%; to `Ic1cc(Nc2ncnc3ccsc23)ccc1OCc1ccccc1`, 0.8%; to `COc1cccc(Nc2nc(C)cc(Nc3cccc(C#N)c3)n2)c1`, 9.09%.
Molecule `CN(C)S(=O)(=O)c1cc(-c2ccc3nccc(-c4cccc(S(N)(=O)=O)c4)c3c2)cnc1N` registered an IFI of 3.85%.
Regarding `COc1ccc(C(=O)N2CCC3(CC2)C(=O)N(CC(=O)NCC2CCCCC2)CN3c2ccccc2)cc1`, the IFI was found to be 5%.
`CCOC(=O)c1cc(C(=O)NCCCCN2CCC(c3ccc(CC)cc3OCC)CC2)ccc1-c1ccc(C(F)(F)F)cc1` yielded an IFI of 10.6%.
In the case of `CCc1cc(-c2n[nH]c(C(F)(F)F)c2-c2ccccc2)c(O)cc1OC`, the IFI worked out at 5.63%.
To `COc1cc(Nc2nccc(N3CCC(NC(=O)Nc4cc(C)ccc4C)C3)n2)cc(OC)c1OC` (stereo not given) belongs 0%.
`Cc1noc(C)c1-c1cccc(CNCc2cccc(-c3ccc(-c4nc5cc(C(F)(F)F)ccc5[nH]4)s3)c2)c1` gave an IFI of 3.96%.
As for `Cc1ccc2cc(NCCCCCCCCON3C(N)=NC(N)=NC34CCCCC4)ccc2n1`, the IFI came to 11.6%.
The molecule `Cc1ccc(C(c2nnnn2C2CCCC2)N(Cc2ccco2)Cc2ccccc2Cl)cc1` (stereo not given) returned an IFI of 2.22%.
To `Cc1cc(NC(=O)Nc2ccc3sccc3c2)c2ccccc2n1` belongs 5.38%.
In the case of `O=C(NCC(CCCN1CCC(c2c[nH]c3ccccc23)CC1)c1ccccc1)Nc1ccc(Cl)c(Cl)c1` (stereo not given), the IFI is 9.93%.
As to `O=C(/C=C/c1ccc([N+](=O)[O-])cc1)N1CCC(NS(=O)(=O)c2cccc(C(F)(F)F)c2)CC1`, the IFI stood at 2.21%.
On to `CN1CCC(N2CCN(Cc3cccc(-c4cccc(-c5nc6ccccc6[nH]5)c4)c3)CC2)CC1`, for which the IFI is 5.63%.
The molecule `Cc1ccc2nc(C)n(C3CCN(C(=O)C4(c5ccccc5)CC4)CC3)c2c1` gave an IFI of 2.63%.
In turn, `O=C(CCCCCCc1ccccc1)Nc1ccc2nc3c(c(NCc4ccccc4)c2c1)CCCC3` came in with an IFI of 9.59%.
Take `O=C(Nc1cccc(Cl)c1)c1cnc(N2CCN(c3ccncc3)CC2)c(Cl)c1`: the IFI came out at 16.7%.
The molecule `CN1CCc2cc(NS(=O)(=O)c3ccc(-c4ccc(Cl)cc4)cc3)c(OCCCN3CCCCC3)cc2CC1` gave an IFI of 18.6%.
For the molecule `CN1CCC(c2ccc(NC(=O)c3ccc(-c4cccc(C(F)(F)F)c4)o3)cc2)CC1`, the IFI stood at 10.2%.
The molecule `Cc1cc(C(=O)Nc2ccc3c(c2)CCN3C2CCN(Cc3ccc(O)cc3)C2)no1` (stereo not given) came in with an IFI of 3.23%.
As for `CCOc1cc(C)ccc1C1CCN(CCCCNC(=O)c2ccc(-c3ccc(Cl)cn3)cc2)CC1`, the IFI came to 3.73%.
As to `CN1CCCN(Cc2ccc(-c3cccc(NC(=O)c4ccc(F)cc4)c3)cc2)CC1`, the IFI is 1.96%.
Regarding `COc1cc(CNc2ncc(-c3ccsc3)c(-c3nccs3)n2)cc(OC)c1`, the IFI stood at 9.09%.
To `N=C(N)c1nc2ccccc2s1` belongs 0.71%.
In turn, `O=c1cc(NCCCNCc2cc3c(Cl)cc(Cl)cc3[nH]2)[nH]c2ccccc12` yielded an IFI of 5.52%.
In turn, `Cn1cncc1C(=O)NC1CCN(c2ccnc(Nc3ccc(F)cc3)n2)C1` (stereo not given) had an IFI of 1.54%.
`CCOc1ccc2c(=NN=Cc3cccc(OC)c3OC)cc(C)[nH]c2c1` yielded an IFI of 2.19%.
To `CCOC(=O)CCCOc1c(OC)cc(Cc2cnc(N)nc2N)cc1OC` belongs 2.88%; to `O=C(C=Cc1ccc(Cl)c(Cl)c1)NCCCCCN1CCCC(CCCNC(=O)c2ccc3c(c2)OCO3)C1` (stereo not given), 4.55%; to `CCCc1cc(Cc2cnc(N)nc2N)cc(CCC)c1OCCCCC(=O)O`, 0%.
`O=S(=O)(Nc1ccc(CCN2CCCCC2CCN2CCCC2)cc1)c1cccc2cccnc12` (stereo not given) registered an IFI of 3.13%.
As for `CC(C)CN1C(=O)c2ccccc2C(C(=O)Nc2cccc(C#N)c2)C1c1cccs1` (stereo not given), the IFI stood at 4.44%.
Regarding `O=C(Nc1n[nH]c2nc(-c3ccco3)c(Br)cc12)c1ccc(CN2CCCC2)cc1`, the IFI was found to be 7.25%.
Molecule `COc1cc2nc(NCC3CCCCC3)nc(NCc3ccccc3)c2cc1OC` displayed an IFI of 6.52%.
For `COc1ccc(CNCc2cccc(-c3cccc(-c4nc5cc(F)ccc5[nH]4)c3)c2)cc1`, the IFI came to 11.4%.
Molecule `N=C(Nc1nc(-c2ccccn2)cc2ccccc12)c1cccc(Cl)c1` returned an IFI of 8.78%.
Consider `CC(CN1CCN(C)CC1)C(=O)Nc1cccc(-c2ccc(-c3nc4cc(F)ccc4[nH]3)cc2)c1` (stereo not given), for which the IFI came to 6.42%.
On to `O=C(Nc1cc(Cl)c(Cl)cc1NC(=O)c1cccc(-c2ccccc2)c1O)c1cccc(-c2ccccc2)c1O`, for which the IFI was 13.9%.
